According to PubChem BioAssay AID1347417 (National Center for Advancing Translational Sciences (NCATS), 2020):
In all, about 120,000 compounds went through this assay and about 5,300 (4.4%) were called active. The inconclusive results got no clear call from the source; some entries with a clear call stand among them for comparison. Calls follow the shape of the dose curve; as a rule, active = well fitted inhibition curve with a large enough effect; inconclusive = small, poorly fitted or top-dose-only effect; inactive = no such curve, though single readings can be large or run the other way. Where the call is inconclusive, the potency comes from a doubtful curve fit.

Assay: qHTS Primary assay for Inhibitors of Plasmodium falciparum Dd2 growth in vitro; also: nearly all actives have a fitted effect of over 65% in size
Details: P. falciparum Dd2 growth, SYBR Green, 72 h; series mostly up to 28.9 µM
Text: Malaria, a parasitic disease spread to humans through the bite of a Plasmodium infected Anopheles mosquito, continues to be a global health burden affecting millions of people, with an estimated 228 million cases and 405,000 deaths in 2018. Concerns about safety and limitations of current antimalarial treatments strongly emphasize the need to develop new therapeutic options. The scarce number of chemotypes and validated drug targets with efficacy against the liver stage, have hindered development of new antimalarials. To address this, a chemoprophylactic drug discovery effort was conducted through a combined phenotypic high-throughput asexual blood stage and liver stage screen, providing a robust foundation to identify liver-stage active lead chemotypes. Compounds were initially screened against Plasmodium falciparum Dd2 strain parasites using a in vitro SYBRGreen-1 based 72 hr proliferation assay to identify novel chemotypes to advance to liver stage assays. NIH/NCATS Early Translation Branch Assay Submitter (PI): Anton Simeonov Ph.D.
Malaria-vivax Assay Protocol: PROTOCOL TABLE (as described by Inglese et al., 2007) SEQUENCE No. (e.g., 1, 2, 3, etc.); […] (e.g., Cells, Incubation, Reagent, etc.); VALUE; DESCRIPTION SEQUENCE, Parameter, Description 1; Reagent; 3 uL complete malaria growth medium, 1536 TC treated Black clear bottom plate 2; Controls; 23 nL positive control artesunate (300 nM final) to column 1; Neutral control DMSO to columns 2-4 3; Compound; 23 nL of compounds in dose response concentration (29 uM to 0.5 nM final) 4; Reagent; 5 uL malaria infected red blood cells (2.5% hematocrit final, 0.3% parasitemia 5; Time; 72 hours at 37C (5% O2, 5% CO2, 90% N2; 95% Rh) 6; Reagent; 2 uL lysis buffer/SYBRGreen-1, 25 sec shake immediately following dispense 7; Time; ~16 hours at 37C (5% O2, 5% CO2, 90% N2; 95% Rh) 8; Detector; EnVision (PerkinElmer) bottom read at 485/14nm excitation and 535/25 nm emission NOTES (numbers refer to sequence above): 1; Complete Malaria Growth Media: 1X RPMI-1640 w/L-glutamine, 5.5g/L Albumax II, 367 uM Hypoxanthine, 25 mM HEPES, 0.25% Sodium Bicarbonate, 35 uM Gentamicin sulfate 2; Controls were added using the Kalypsis Pintool (Wako USA) equipped with 1536 pinhead 3; Compounds were added in a 7-point, titration with a high final concentration of 29 uM by Pintool from seven inter-plate titrations of library plates and two DMSO control plates at the beginning and end (see Yasgar et al., 2008). 4; Red blood cells infected with Plasmodium falciparum Dd2 parasites were used. 6; Lysis buffer: 20 mM Tris-HCl, 10 mM EDTA, 0.16% Saponin, 1.6% Triton-X, 10X SYBR Green. REFERENCE: Inglese J, Shamu CE, Guy RK. 2007. Reporting data from high-throughput screening of small-molecule libraries. Nat Chem Biol. doi:10.1038/nchembio0807-438 Yasgar A, Shinn P, Jadhav A, Auld D, Michael S, Zheng W, Austin CP, Inglese J, Simeonov A. 2008. Compound Management for Quantitative High-Throughput Screening. J Lab Autom 13:79-89. doi:10.1016/j.jala.2007.12.004
Potency is read from the fitted curve at half-maximal effect; tags tell the direction and shape of the fitted curve.

SMILES	Potency
CCOc1ccc(C2c3[nH]c4ccccc4c3CCN2C(=O)Cc2cccc(OCC)c2OCC)cc1 (stereo not given)	active: 11.2 µM
COc1ccc(NC(=O)C2(Cc3ccccc3)CCCCC(=O)N2)cc1F (stereo not given)	inconclusive: 10 µM [inhibitor, single point]
CCC1Oc2ccc(NC(=O)c3ccc(OC)c(OC)c3)cc2CN(Cc2ccc(Cl)cc2)C1=O (stereo not given)	inconclusive: 1.41 µM [inhibitor, partial curve]
O=C1NC(=NC2CCCCC2)C2(CCCN(Cc3ccc(F)cc3)C2)N1c1cccnc1 (stereo not given)	inconclusive: 12.6 µM [inhibitor, single point]
Cc1ncc2n1C(=O)N(C1CCN(Cc3cccc(C(F)(F)F)c3)CC1)C2	inconclusive: 17.8 µM [inhibitor, single point]
COCCN1CCCCC(CC(=O)Nc2ccc(C)cc2)C1=O (stereo not given)	inactive
COc1ccc(CC(=O)Nc2ccc([C@@H](O)[C@H]3COCC(=O)N3CC(C)C)cc2)cc1	inconclusive: 10 µM [inhibitor, partial curve, poor fit]
CN(C)C1CCCN(C(=O)c2ccc(CN3CCCC3)o2)CC1 (stereo not given)	inactive
O=C(NCc1cccnc1)[C@@H]1C[C@@H](O)CN1C1CCN(C(=O)c2cccs2)CC1	inactive
CCN1CCc2nc3sc(C(=O)c4ccccc4)c(N)c3cc2C1	inconclusive: 10 µM [inhibitor, single point]
CCCn1ncc(CN(C)CC2CCN(CCc3ccc(Cl)cc3)CC2)c1C	inconclusive: 11.2 µM [inhibitor, single point]
CC(CNC(=O)c1ccc(CSc2nc3ccncc3n2Cc2ccc(F)cc2)cc1)c1ccccc1 (stereo not given)	active: 4.47 µM
Cc1ccccc1CNC[C@H]1O[C@@H]2C[C@@H](CC(=O)NCc3nccn3C)O[C@@H]2[C@@H]1O	inactive
CCS(=O)(=O)N1CCOC[C@H](Oc2ccc(C(F)(F)F)cn2)C1	inconclusive: 17.8 µM [inhibitor, partial curve, poor fit]
Cc1cnc(N2CC3CCC(C2)N3CC(F)(F)F)c([N+](=O)[O-])c1	inactive
CC(=O)N1C[C@H](NC(=O)c2cnc(N)nc2-c2ccccc2)[C@@H](C2CC2)C1	inactive
Cc1nc2c(c(-c3ccc(O)cc3)n1)CN(C(=O)c1ccc(C(F)(F)F)cc1)CCC2	inconclusive: 11.2 µM [inhibitor, single point]
Cc1ccc(Cl)cc1-n1ncc2c(NCc3ccc(F)cc3)ncnc21	inconclusive: 14.1 µM [inhibitor, single point]
Cn1cccc1CN1CC(F)(F)C[C@H]1c1nnc(C2CC2)o1	inconclusive: 17.8 µM [inhibitor, single point]
COc1ccc(-c2cc3ccc(O)c(CN4CCCC(C)C4)c3oc2=O)cc1 (stereo not given)	active: 1 µM
O=C(NCc1nnnn1-c1ccccc1)C1NCCc2[nH]cnc21 (stereo not given)	inconclusive: 17.8 µM [inhibitor, single point]
O=C(NC1CC1)C1CCN(C(=O)c2ncn3c2COC(c2ccc(Cl)cc2)C3)CC1 (stereo not given)	inconclusive: 2.82 µM [inhibitor, partial curve]

SMILES	Potency
O=C(c1ccc(F)cc1F)N1CCC2(CC1)OCC(C(=O)N1CCCC1)N2C(=O)c1ccco1 (stereo not given)	inactive
CCOc1ccc2nc(N3CCCC(C(=O)NCCCOC)C3)sc2c1 (stereo not given)	inconclusive: 12.6 µM [inhibitor, single point]
Cc1cc(N2CCC(NS(=O)(=O)c3cn(C)c(C)n3)C2=O)ccc1F (stereo not given)	inactive
CCOc1ccccc1CN1CCCOCCNC(=O)[C@@H]2CCCC[C@@H]21	inconclusive: 1.41 µM [inhibitor, partial curve, poor fit]
CC(C)c1nccn1CCCNC(=O)c1ccc(-c2ccc(F)cc2)nc1	inconclusive: 8.91 µM [inhibitor, single point]
Cc1cc(C)n2nc(C(=O)N3CCC4(CC3)C(=O)Nc3ccccc34)cc2n1	inconclusive: 20 µM [inhibitor, partial curve, poor fit]
C=CCNC(=O)CCc1c(C)nn(-c2ccc(F)cc2)c1Oc1ccc(F)cc1F	inconclusive: 8.91 µM [inhibitor, single point]
COc1ccc(C)cc1NC(=O)C1CCN(S(=O)(=O)c2ccc3c(c2)CCCN3C(C)=O)CC1	inconclusive: 8.91 µM [inhibitor, single point]
COc1ccc(CC(=O)NC2CCCc3c2[nH]c2ccccc32)cc1OC (stereo not given)	inactive
Nc1cccc(-c2cn(C[C@H]3CC4CCN3C[C@@H]4C(=O)NCc3ccc(F)cc3)nn2)c1 (stereo not given in full)	inconclusive: 25.1 µM [inhibitor, single point]
NCc1cccc(Oc2ncnc3ccccc23)c1	inconclusive: 6.31 µM [inhibitor, partial curve, poor fit]
CCOc1ccc(Cn2c(-c3ccc(OCC)c(OC)c3)nc3ccccc32)cc1OC	inconclusive: 17.8 µM [inhibitor, single point]
COCCn1c(=O)c2c(n1Cc1ccccc1)CN(Cc1ccc3[nH]ccc3c1)CC2	inconclusive: 5.62 µM [inhibitor, full curve, poor fit]
Cc1cccc(-n2nc(C)c(CCC(=O)N(C)C(C)C)c2Oc2ccccc2C)c1	inconclusive: 3.98 µM [inhibitor, partial curve, poor fit]
C=C(C)CN(C)C(=O)c1cc(CN2CCC(Cc3ccccc3)CC2)on1	inconclusive: 17.8 µM [inhibitor, single point]
O=C(Nc1ccccc1)N1C[C@@H](F)[C@@H](OCc2nc3ccc(F)cc3[nH]2)C1	inconclusive: 17.8 µM [inhibitor, single point]
CC[C@H]1CN(C(=O)NC2CCCCC2)CC[C@H]1CC(=O)Nc1ccccc1	inconclusive: 11.2 µM [inhibitor, partial curve]
CCCN(CCC)CCNC(=O)Cn1cc2c(n1)-c1c(oc(C(=O)N3CCCC3)c1C)CC2	inconclusive: 17.8 µM [inhibitor, single point]
CN1CCN(c2ccc(-c3noc([C@@H]4CCCN4CCCc4ccccc4)n3)cn2)CC1	inconclusive: 3.55 µM [inhibitor, partial curve, poor fit]
O=C(NC1CC1)c1ccc2nnc(-c3ccc(Cl)cc3)n2c1	inactive
COc1ccc(NC(=O)CSC2=Nc3ccccc3C3=NC(CCC(=O)NCc4ccc(F)cc4)C(=O)N23)cc1Cl (stereo not given)	active: 11.2 µM
CCNc1cc(N2CCC(CCC(=O)NCc3cccc(F)c3)CC2)ncn1	inconclusive: 3.98 µM [inhibitor, partial curve, poor fit]

SMILES	Potency
COc1ccc(CNC(=O)Cn2c(-c3cccc(Cl)c3)nc(C)c(CCO)c2=O)cc1OC	inconclusive: 10 µM [inhibitor, partial curve]
CCN(CC)CC(=O)N1CCCC(N2CCN(c3ccc(F)cc3)CC2)C1 (stereo not given)	inconclusive: 17.8 µM [inhibitor, single point]
COc1ccc(CN2C=C(C(=O)OCc3noc(C4CCCC4)n3)C(C)=NS2(=O)=O)cc1	inconclusive: 20 µM [inhibitor, single point]
COc1cccc(CN2CCC3(CC2)C(=O)NCN3Cc2ccc(Cl)cc2)c1	inactive
CC1(C(=O)NCc2ccco2)CN(Cc2ccccc2)Cc2ccc(N3CCOCC3)nc21 (stereo not given)	inconclusive: 0.0708 µM [inhibitor, full curve, poor fit]
CC(C)C[C@@H]1N[C@H](C(=O)N(C)CCC#N)Cc2c[nH]c3cccc1c23	inconclusive: 10 µM [inhibitor, partial curve]
CCc1ccc(C(=O)c2cn(CC(=O)Nc3cc(OC)ccc3OC)c3ccc(C)cc3c2=O)cc1	active: 10 µM
CCCOc1ccc(-c2nn(-c3ccccc3)cc2C2NC(=O)NC(C)=C2C(=O)OC)cc1 (stereo not given)	active: 10 µM
CCC(C)Nc1sc(S(=O)(=O)CC)nc1S(=O)(=O)c1ccc(C)cc1 (stereo not given)	active: 12.6 µM
Cc1noc2c(-c3cccnc3)cc(-c3cccc(C(F)(F)F)c3)nc12	inconclusive: 3.16 µM [inhibitor, single point]
Cc1[nH]cnc1CN1CCc2nc(C(=O)Nc3cccc(C(F)(F)F)c3)oc2CC1	inconclusive: 2.51 µM [inhibitor, partial curve]
CCCCN(C)C(=O)Cn1c(C2CC(=O)N(c3ccc(C)cc3)C2)nc2ccccc21 (stereo not given)	inactive
CCOc1ccccc1NC(=O)c1c(NCc2ccc(C)o2)sc2c1CCC(C)C2 (stereo not given)	inactive
O=C(Nc1ccccc1)N[C@H]1[C@H](O)[C@@H](N2CCC(Cc3ccccc3)CC2)[C@@H]2OC[C@H]1O2	inactive
CC1CCC(Nc2ncnc3onc(-c4ccc(F)cc4)c23)CC1 (stereo not given)	inconclusive: 17.8 µM [inhibitor, single point]
CC(C)NC(=O)CCC[C@@H]1[C@H]2CCCN3CCC[C@@H](CN1Cc1ccccc1)[C@@H]23	inactive
O=C(NCc1ccc(F)cc1)C1CCc2sc(C(=O)N3CCCC3)cc2C1 (stereo not given)	inconclusive: 7.94 µM [inhibitor, partial curve]
NC(=O)CNC(=O)C1=C[C@@H](NC(=O)NC2CCCCC2)[C@@H](O)[C@H](O)C1	inactive
COCCCNC(=O)c1oc2c(c1C)-c1nn(Cc3ccc(Cl)cc3)cc1CC2	inconclusive: 17.8 µM [inhibitor, single point]
CN(Cc1ccc(C#N)cc1)Cc1cccc2cnccc12	inconclusive: 10 µM [inhibitor, single point]
COc1ccc(CCC(=O)N2[C@@H]3CC[C@H]2CC(NC(=O)c2ccncc2)C3)cc1 (stereo not given in full)	inactive
